In all, about 310,000 compounds went through this assay and about 14,000 (4.5%) showed an effect of 50% or more. The effect is printed as a negative number. Some of the results follow.
Biological target: human ether-à-go-go-related gene (hERG) potassium channel (human, UniProt Q12809)
Experiment: primary screen, population patch clamp on CHO cells stably expressing hERG
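Also: peak tail current of the secondary pulse compared with the same well before compound.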

Chain of human ether-à-go-go-related gene (hERG) potassium channel (Q12809 whole entry, looked up): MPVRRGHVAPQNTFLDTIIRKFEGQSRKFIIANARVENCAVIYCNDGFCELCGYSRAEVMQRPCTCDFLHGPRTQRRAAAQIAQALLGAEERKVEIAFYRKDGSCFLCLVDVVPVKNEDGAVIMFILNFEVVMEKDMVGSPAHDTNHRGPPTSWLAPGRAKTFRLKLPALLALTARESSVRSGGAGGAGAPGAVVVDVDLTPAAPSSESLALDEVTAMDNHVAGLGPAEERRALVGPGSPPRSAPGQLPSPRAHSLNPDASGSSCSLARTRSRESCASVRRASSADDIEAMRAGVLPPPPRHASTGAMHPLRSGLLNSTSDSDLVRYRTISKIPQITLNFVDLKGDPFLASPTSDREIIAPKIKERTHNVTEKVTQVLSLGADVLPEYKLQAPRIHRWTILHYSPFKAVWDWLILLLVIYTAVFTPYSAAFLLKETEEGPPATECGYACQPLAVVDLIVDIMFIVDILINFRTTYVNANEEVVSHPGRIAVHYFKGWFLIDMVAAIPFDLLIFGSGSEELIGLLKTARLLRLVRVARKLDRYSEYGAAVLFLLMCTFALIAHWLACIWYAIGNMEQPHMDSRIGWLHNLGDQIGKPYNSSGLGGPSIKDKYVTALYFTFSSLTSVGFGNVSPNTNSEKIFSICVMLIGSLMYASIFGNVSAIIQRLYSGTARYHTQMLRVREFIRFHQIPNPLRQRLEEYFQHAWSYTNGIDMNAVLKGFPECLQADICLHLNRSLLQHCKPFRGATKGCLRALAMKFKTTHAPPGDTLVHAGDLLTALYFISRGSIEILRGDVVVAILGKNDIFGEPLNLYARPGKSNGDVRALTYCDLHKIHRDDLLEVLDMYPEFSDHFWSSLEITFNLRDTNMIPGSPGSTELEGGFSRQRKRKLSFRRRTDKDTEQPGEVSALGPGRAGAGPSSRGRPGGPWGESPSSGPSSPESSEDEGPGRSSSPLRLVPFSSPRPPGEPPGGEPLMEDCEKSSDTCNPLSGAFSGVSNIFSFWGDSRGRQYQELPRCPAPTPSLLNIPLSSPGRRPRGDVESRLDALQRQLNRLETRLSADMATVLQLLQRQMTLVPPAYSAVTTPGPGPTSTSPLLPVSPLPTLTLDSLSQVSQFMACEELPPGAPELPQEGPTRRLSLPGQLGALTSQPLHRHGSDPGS

Compared with O=C(CCn1nnc2ccccc21)OCC(=O)c1ccc(F)cc1, CCOc1ccc(C(=O)NC(Cc2ccccc2)C(=O)OC)cc1 (stereo not shown) is lower in “hERG current change (%, negative = inhibition) at 10uM” value: 1.38% for the first, -5.71% for the second.

First: C/C=C/c1ccc(OC)c(OC(C)=O)c1
Second: COc1ccc(CC(=O)Nc2ccc(OC(C)=O)cc2C(=O)O)cc1
The “hERG current change (%, negative = inhibition) at 10uM” value of the first is higher: 6.06% for the first, -3.45% for the second.

Going from Brc1ccccc1-n1nnc(-c2nccs2)n1 to Fc1ccccc1Cn1nnc(-c2ccc3c(c2)OCO3)n1, the “hERG current change (%, negative = inhibition) at 10uM” value falls from 2.65% to -1.33%.

Compared with O=C(Nc1ccc(S(=O)(=O)N2CCCC2)cc1)C1COc2ccccc2O1 (stereo not shown), CCN1CCN(c2ccc(S(=O)(=O)N3CCCCC3)cc2NC(=O)/C=C/c2ccc(F)cc2)CC1 is lower in “hERG current change (%, negative = inhibition) at 10uM” value: 13% for the first, -48.1% for the second.

Compared with CCC(C)(C(=O)NC1CCCC1)N(Cc1cccs1)C(=O)Cc1cccs1 (stereo not shown), CC(=O)Nc1ccc(C(=O)OC2CCCCC2=O)cc1 (stereo not shown) is higher in “hERG current change (%, negative = inhibition) at 10uM” value: -22.4% for the first, 11.1% for the second.

Compared with Cn1c(=O)oc2cc(S(=O)(=O)N3CCOCC3)ccc21, Cn1c(=O)c(=O)n(C)c2cc(S(=O)(=O)N3CCOCC3)ccc21 is lower in “hERG current change (%, negative = inhibition) at 10uM” value: 4.59% for the first, -4.27% for the second.

Compared with Cc1oc(-c2cc3c(cc2Cl)OCO3)nc1CN1CCCC(C(=O)N2CCOCC2)C1 (stereo not shown), Cc1ccc2oc(=O)n(CC(=O)N3CCOCC3)c2c1 is higher in “hERG current change (%, negative = inhibition) at 10uM” value: -24.7% for the first, 10% for the second.

Going from CCOC(=O)N1CCC(N2Cc3cccc(C(=O)Nc4ccc(OC)c(OC)c4)c3C2=O)CC1 to COc1ccc2oc(C(=O)OCC(=O)Nc3ccc(N4CCOCC4)cc3)c(C)c2c1, the “hERG current change (%, negative = inhibition) at 10uM” value rises from -9.58% to 8.36%.

First: O=C(NCc1ccco1)c1ccc(OCC2CCCO2)cc1 (stereo not shown)
Second: CCn1c(SCC(=O)NCc2ccco2)nc2ccccc2c1=O
The “hERG current change (%, negative = inhibition) at 10uM” value of the first is higher: -23.2% for the first, -34.4% for the second.

First: CC(C)c1ccc2oc(-c3ccc(N)cc3)nc2c1
Second: CCN(CC)C(=O)COc1ccc2c(-c3ccc(OC)cc3)cc(=O)oc2c1
The “hERG current change (%, negative = inhibition) at 10uM” value of the first is higher: 17.9% for the first, -5.33% for the second.

Going from Cc1ccc(/C=C/C(=O)Nc2nccs2)o1 to Cc1csc(NC(=O)CSc2nccn2Cc2ccco2)n1, the “hERG current change (%, negative = inhibition) at 10uM” value rises from -2.87% to 4.55%.

Going from Cc1ccn(CC(=O)N/N=C/c2cc([N+](=O)[O-])ccc2O)n1 to Cc1c(C(=O)c2ccc([N+](=O)[O-])cc2)c(=O)n(C)c(=O)n1C, the “hERG current change (%, negative = inhibition) at 10uM” value falls from 6.53% to -26%.

Going from Cc1ccc2nccc(C(=O)N3CCCC(N4CCN(c5ccc(F)cc5)CC4)C3)c2c1 (stereo not shown) to O=C(Cn1c(=O)c2cccn2c2ccc(F)cc21)N1CCN(c2ccc(F)cc2)CC1, the “hERG current change (%, negative = inhibition) at 10uM” value rises from -48.5% to 9.04%.

First: Cc1cccc(Cn2c(C(=O)OC(C)C)cc3c2ccn3C)c1
Second: COc1ccc(OC)c(NC(=O)CSc2nnc(C)n2Cc2ccccc2)c1
The “hERG current change (%, negative = inhibition) at 10uM” value of the first is higher: 6.07% for the first, -23.5% for the second.

Going from Cc1ccc(C)c(Cn2c3ccccc3c3cnn(CC(=O)NCCCN4CCOCC4)c(=O)c32)c1 to Cc1cc(SCC(=O)N2CCC(c3noc4ccc(F)cc34)CC2)nc2ccccc12, the “hERG current change (%, negative = inhibition) at 10uM” value rises from -49.7% to -4.47%.

First: CN1CCN(C(=S)c2ccc(Cl)cc2)CC1
Second: Cc1nc(N2CCN(C(=O)c3ccc(Cl)cc3)CC2)c(C#N)c2c1COC(C)(C)C2
The “hERG current change (%, negative = inhibition) at 10uM” value of the first is higher: 3.39% for the first, -60.8% for the second.

Going from COc1ccc([C@H]2Oc3cc(O)cc(O)c3C(=O)C2[C@@H]2C(=O)c3c(O)cc(O)cc3O[C@@H]2c2ccc(OC)cc2)cc1 (stereo partly shown) to COc1cccc(NC(=O)NNC(=O)COc2ccc3ccccc3c2)c1, the “hERG current change (%, negative = inhibition) at 10uM” value falls from 16.9% to -0.765%.

First: CC(=O)NC(c1cc(Cl)c2cccnc2c1O)C(C)C (stereo not shown)
Second: CCC(C)[C@H](NC(=O)OC(C)(C)C)C(=O)N/N=C/c1cccc2nccnc12 (stereo partly shown)
The “hERG current change (%, negative = inhibition) at 10uM” value of the first is lower: -17.2% for the first, -9.82% for the second.

Compared with Cn1c(=O)n(C)c2cc(NC(=O)c3ccccc3[N+](=O)[O-])c(Br)cc21, CC1(C)CC(=O)c2cc(NC(=O)c3ccccc3)c(=O)oc2C1 is higher in “hERG current change (%, negative = inhibition) at 10uM” value: -26% for the first, 19.6% for the second.

Going from NNC(=O)c1ccc2[nH]c3c(c2c1)CCCC3 to Nn1c(CN2CCCCC2)nc2ccccc2c1=O, the “hERG current change (%, negative = inhibition) at 10uM” value falls from 5.31% to -6.71%.

Going from O=C(NCc1ccco1)Nc1ccc2snnc2c1 to CCCCN(CC)Cc1ccc(CNC(=O)Nc2ccc(Cl)cc2)o1, the “hERG current change (%, negative = inhibition) at 10uM” value falls from 2.51% to -61.9%.

Compared with Cc1nc(C)c(-c2ccc(SCC(=O)Nc3ccc(F)cc3F)nn2)s1, COC(=O)Cc1c(C)nc2nc(-c3ccc(Cl)cc3)[nH]n2c1=O is higher in “hERG current change (%, negative = inhibition) at 10uM” value: -6.6% for the first, -0.182% for the second.

Going from O=C(NCc1cccnc1)c1ccc(Br)o1 to O=C(Nc1cccc(OC(=O)c2ccc(Br)o2)c1)c1ccccc1, the “hERG current change (%, negative = inhibition) at 10uM” value falls from 24.2% to 10.6%.

First: O=C(CCSc1ccc(Cl)cc1)N1CCOCC1
Second: Cc1ccc(S(=O)(=O)N2CC(C)N(C(=O)N3CCOCC3)C2)cc1 (stereo not shown)
The “hERG current change (%, negative = inhibition) at 10uM” value of the first is lower: 0.93% for the first, 19.4% for the second.

First: COc1ccc(N2CCN(C(=O)c3oc4ccccc4c3NC(=O)CCc3cc(OC)no3)CC2)cc1
Second: CC(=O)N1CCN(c2ccc(NC(=S)NC(=O)COc3ccc(C(C)(C)C)cc3)cc2)CC1
The “hERG current change (%, negative = inhibition) at 10uM” value of the first is lower: -10.4% for the first, 0.854% for the second.

First: O=C(NCCNc1ccc2ccccc2c1)c1cccn2c(=O)c3sccc3nc12
Second: COC(=O)c1ccc(NC(=S)Nc2ccc3ccccc3c2)cc1
The “hERG current change (%, negative = inhibition) at 10uM” value of the first is lower: -6.94% for the first, 26.9% for the second.

Compared with Cc1nc2ncnn2c(C)c1CCC(=O)N1CCC2(CC1)OCCO2, Cc1cc(C)n2ncnc2n1 is lower in “hERG current change (%, negative = inhibition) at 10uM” value: 4.5% for the first, 2.2% for the second.

Compared with CC1CCN(c2c(NCc3ccc(C(=O)NCCc4ccc(Cl)cc4)cc3)c(=O)c2=O)CC1, Cc1cc(C)c(C(=O)N2CCCC(CNC(=O)C3(c4ccc(Cl)cc4)CC3)C2)c(=O)[nH]1 (stereo not shown) is higher in “hERG current change (%, negative = inhibition) at 10uM” value: -5.91% for the first, 6.58% for the second.

First: Cc1ccc2c(c1)C1CN(C)CCC1N2C(=O)c1ccccc1NS(=O)(=O)c1cccc(C(F)(F)F)c1.Cl (stereo not shown)
Second: CCCOc1ccc(C(F)(F)F)cc1NC(=O)c1cc(C)on1
The “hERG current change (%, negative = inhibition) at 10uM” value of the first is lower: -48.5% for the first, -3.07% for the second.

First: O=C(NNC1OC(CO)C(O)C(O)C1O)c1cccc(Br)c1 (stereo not shown)
Second: Cc1cc(NC(=O)c2cccc(COc3ccc(Br)cc3)c2)no1
The “hERG current change (%, negative = inhibition) at 10uM” value of the first is higher: 12.9% for the first, 3.2% for the second.

Compared with Cc1ccc(NC(=O)c2ccc3c(c2)N(CC(=O)NC(C)C)C(=O)C(C)(C)O3)cc1, Cc1ccc(/C=N/N2C(=S)SC(C)(C)C2N(O)C(=O)Nc2ccc([N+](=O)[O-])cc2)cc1 (stereo not shown) is lower in “hERG current change (%, negative = inhibition) at 10uM” value: 18.2% for the first, 4.55% for the second.

Going from COc1ccc(CC(=O)OCc2nnc(-c3ccccc3)o2)cc1 to Cc1cc(OCC(=O)N(C)Cc2ccccc2)ccc1Br, the “hERG current change (%, negative = inhibition) at 10uM” value falls from 16% to 5.12%.

Going from Cc1ccccc1NP(=O)(Oc1ccccc1F)Oc1ccccc1F to COC(=O)c1ccccc1C(=O)N(c1ccccc1)c1ccccc1, the “hERG current change (%, negative = inhibition) at 10uM” value falls from 13.3% to 3.01%.

Going from CCC(C)(C)C1CCc2[nH]nc(C(=O)NCCCNC(=O)OC(C)(C)C)c2C1 (stereo not shown) to CCc1cc(=O)oc2c3c(cc(OCC(=O)NCCCOC)c12)OC(C)(C)CC3, the “hERG current change (%, negative = inhibition) at 10uM” value falls from 14.5% to 8.45%.

Going from Cc1cc(C)n(-c2cc(N3CCN(C(=O)c4cccc(F)c4)CC3)ccc2[N+](=O)[O-])n1 to CCCN1CCN(C(=O)c2cc(COc3ccc(F)cc3F)on2)CC1, the “hERG current change (%, negative = inhibition) at 10uM” value rises from -67.9% to -12.3%.

Going from O=C(O)C1CC=CCC1C(=O)Nc1cccc([N+](=O)[O-])c1 (stereo not shown) to O=C(C[n+]1ccccc1)c1ccc(NC(=O)c2ccccc2)cc1.[I-], the “hERG current change (%, negative = inhibition) at 10uM” value falls from 28.3% to 8.42%.

Compared with CSc1nc(Oc2ccc3ccccc3c2)c2ccccc2n1, O=C(N/N=C/c1c(O)ccc2ccccc12)c1ccc[n+](CCO)c1.[Cl-] is lower in “hERG current change (%, negative = inhibition) at 10uM” value: 20.4% for the first, 1.26% for the second.

Going from COC/C=C/C1=CC2=CC(=O)C(C)(OC(=O)c3cnc4ccccc4n3)C(=O)C2=CN1c1ccc(CO)cc1 (stereo not shown) to CC(Sc1nc2cc([N+](=O)[O-])ccc2n1-c1ccc(F)cc1)C(=O)NCc1ccc2c(c1)OCO2 (stereo not shown), the “hERG current change (%, negative = inhibition) at 10uM” value rises from -15.9% to 5.65%.

Compared with COc1ccc(-c2nn(CCC#N)cc2C=C(C#N)C#N)cc1, CCOc1ccc(C(O)c2nccn2C)cc1 (stereo not shown) is higher in “hERG current change (%, negative = inhibition) at 10uM” value: -17.9% for the first, 10.7% for the second.

Going from C=CCSC1=C(C#N)C(c2ccc(C(C)C)cc2)CC(=O)N1 (stereo not shown) to CCOC(=O)C1CN(S(=O)(=O)c2ccc(C)cc2)C1, the “hERG current change (%, negative = inhibition) at 10uM” value rises from -8.13% to 5.5%.

Compared with CCOC(=O)N1CCN(C(=O)CCC2CCCC2)CC1, CCOC(=O)C(=CNc1ccc(N2CCOCC2)cc1)C(=O)OCC is lower in “hERG current change (%, negative = inhibition) at 10uM” value: 9.89% for the first, -12.3% for the second.

Going from S=C(NNc1ccnc2cc(Cl)ccc12)Nc1ccccc1Cl to Cc1ccc(OCC(=O)NCCNC(=O)COc2ccc(C)cc2)cc1, the “hERG current change (%, negative = inhibition) at 10uM” value rises from 7.3% to 9.34%.

Compared with CC1(C)CC(=O)C2=C(C1)N(Cc1ccco1)C(=O)C2(NC(=O)C1CCCCC1)C(F)(F)F (stereo not shown), Cc1c(CC(=O)O)c(=O)oc2cc3c(cc12)CCC(C)(C)O3 is higher in “hERG current change (%, negative = inhibition) at 10uM” value: 1.87% for the first, 19.1% for the second.

c1csc(C(c2nnnn2C2CCCCC2)N2CCCC3(CCCCC3)C2)c1 (stereo not shown) and CC(=O)NCCOc1nc(N(C)C)nc(N(C)C)n1 are the same in “hERG current change (%, negative = inhibition) at 10uM” value: 22.5% for the first, 22.5% for the second.

Source: publication PMC4336329 (PLoS ONE, 2015)
